According to PubChem BioAssay AID504332 (National Center for Advancing Translational Sciences (NCATS), 2011):
Out of some 350,000 compounds screened, about 31,000 (8.9%) were called active. This list was built around the results that the source calls inconclusive (neither active nor inactive); the mix of calls is not that of the screen. Calls come from the whole dose curve; as a rule, active = well fitted inhibition curve with a large enough effect; inconclusive = small, poorly fitted or top-dose-only effect; inactive = no such curve, though single readings can be large or run the other way. Potencies of inconclusive entries are doubtful fits and often do not repeat.

What follows are molecules tested against Histone-lysine N-methyltransferase EHMT2 (Homo sapiens) (UniProt Q96KQ7) (assay: qHTS Assay for Inhibitors of Histone Lysine Methyltransferase G9a). Details: G9a H3K9 monomethylation, AlphaScreen, 2 h; activity, negative = inhibition: at 59 µM (top of the series) unless noted.
How it was run: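 Enzyme 20 nM + cpd, 15 min RT; add b-H3K9 pep 500 nM / SAM 20 uM; 2 h RT; anti-H3K9me1 Ab 0.5 ug/mL + SA donor / anti-rabbit acceptor beads 20 ug/mL each, 10 min; AlphaScreen read.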
% is set by controls: 0 for no effect and ±100 for the full control effect; potency is the fitted concentration of half-maximal effect; tags give direction and shape of the fitted curve.
Note: nearly all actives have a fitted effect of over 75% in size.

Chain of UniProt Q96KQ7 (Q96KQ7 whole entry, looked up): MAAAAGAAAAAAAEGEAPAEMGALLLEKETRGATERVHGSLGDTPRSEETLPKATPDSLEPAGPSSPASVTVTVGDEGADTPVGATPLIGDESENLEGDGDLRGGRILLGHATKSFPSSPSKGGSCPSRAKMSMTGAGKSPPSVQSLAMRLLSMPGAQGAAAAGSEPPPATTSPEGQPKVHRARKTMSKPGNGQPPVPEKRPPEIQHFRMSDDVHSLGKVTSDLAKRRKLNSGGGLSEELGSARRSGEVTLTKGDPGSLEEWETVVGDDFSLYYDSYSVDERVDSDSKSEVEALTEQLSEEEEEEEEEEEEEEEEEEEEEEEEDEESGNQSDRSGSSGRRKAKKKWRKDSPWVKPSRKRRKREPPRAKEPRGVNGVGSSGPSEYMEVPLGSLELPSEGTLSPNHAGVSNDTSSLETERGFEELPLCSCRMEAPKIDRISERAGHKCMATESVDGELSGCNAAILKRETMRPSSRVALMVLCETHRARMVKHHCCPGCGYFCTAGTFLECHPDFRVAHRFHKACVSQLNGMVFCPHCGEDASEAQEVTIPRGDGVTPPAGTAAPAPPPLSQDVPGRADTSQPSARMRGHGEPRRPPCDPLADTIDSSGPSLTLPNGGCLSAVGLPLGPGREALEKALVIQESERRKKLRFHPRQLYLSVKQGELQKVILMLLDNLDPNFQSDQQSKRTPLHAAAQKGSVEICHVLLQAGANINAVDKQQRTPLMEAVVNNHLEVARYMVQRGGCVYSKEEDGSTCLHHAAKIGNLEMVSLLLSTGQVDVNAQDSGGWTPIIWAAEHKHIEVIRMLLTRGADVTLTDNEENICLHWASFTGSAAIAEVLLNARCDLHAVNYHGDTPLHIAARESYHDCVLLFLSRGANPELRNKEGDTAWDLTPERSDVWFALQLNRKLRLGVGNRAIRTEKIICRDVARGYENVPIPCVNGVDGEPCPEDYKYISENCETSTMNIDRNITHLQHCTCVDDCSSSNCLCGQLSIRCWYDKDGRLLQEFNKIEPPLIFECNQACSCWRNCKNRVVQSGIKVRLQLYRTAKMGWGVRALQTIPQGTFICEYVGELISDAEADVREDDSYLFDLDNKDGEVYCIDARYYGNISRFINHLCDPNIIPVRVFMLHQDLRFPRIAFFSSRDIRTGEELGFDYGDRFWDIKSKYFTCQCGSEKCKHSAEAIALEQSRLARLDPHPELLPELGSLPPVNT

COCCCN1CN(S(=O)(=O)c2ccc(C)cc2C)c2nc3ccccc3nc21 was tested. Which Potency did it give?
Its Potency is active: 31.6 µM.

CC1=C(C)/C(=N\OS(=O)(=O)c2ccc(C)cc2)C=CC1=O was tested. Which Potency did it give?
The Potency was active: 20 µM.

For CCOC(=O)c1sc(N)c(C(=O)Nc2ccccc2OC)c1C, which Potency is on record?
Its Potency is active: 2.82 µM.

Which Potency does the source give for O=C(CN1CCCCC1)N1CCCc2ccccc21 here?
Its Potency is inconclusive: 4.47 µM [inhibitor, full curve, poor fit].

For CCCCSC1=C(C#N)C(c2ccccc2C)CC(=O)N1 (stereo not drawn), which “activity, negative = inhibition” value is on record?
The value was inactive: 6.9% [at 102 µM].

For CC(C)c1ccc(NC(=O)c2cc([N+](=O)[O-])ccc2N2CCOCC2)cc1, which Potency is on record?
The Potency was inconclusive: 89.1 µM [inhibitor, single point].

With Cn1c(Cc2ccccc2)nnc1SCC(=O)c1ccc(Br)s1 as the molecule, how does the activity, negative = inhibition read?
The activity, negative = inhibition was inconclusive: -126% [inhibitor].

For COc1ccc(C(=O)N2CCN(C)C(=O)[C@@H]2C)cc1OC1CCN(C(C)C)CC1, which “activity, negative = inhibition” value is on record?
The value was inactive: 35.9% [at 102 µM].

With CCn1cc(C(=O)NCC2CCCO2)c(=O)c2cc(S(=O)(=O)N(C)C3CCCCC3)ccc21 (stereo not drawn) as the molecule, how does the Potency read?
The Potency was inconclusive: 5.01 µM [inhibitor, full curve, poor fit].

With CSc1nc2nc3c(cc2c(=O)n1-c1ccccc1)COC(C)(C)C3 as the molecule, how does the Potency read?
The Potency was active: 50.1 µM.

For Nc1nnc(Cc2c[nH]c3ccccc23)s1, which Potency is on record?
The Potency was active: 44.7 µM.

With Cc1ccc(NCCC(=O)c2ccc(Br)cc2)cc1 as the molecule, how does the “activity, negative = inhibition” value read?
The value was inactive: -10.4%.

COc1ccc(C(C)=O)cc1CN1CCCCC1 was tested. Which Potency did it give?
The Potency was inconclusive: 39.8 µM [inhibitor, single point].

How did the “activity, negative = inhibition” value turn out when CC(NC(=O)c1cc(S(=O)(=O)N(C)C)ccc1Cl)c1ccc(-n2ccnc2)cc1 (stereo not drawn) was run?
The value was inactive: 109% [at 102 µM].

O=C(c1c[nH]c2ccccc12)C(F)(F)F was tested. Which “activity, negative = inhibition” value did it give?
Its value is inactive: 27.4% [at 102 µM].

Cc1ccsc1C(=O)NNC(=O)c1ccncc1 was tested. Which “activity, negative = inhibition” value did it give?
Its value is inactive: 3.89% [at 102 µM].

For CCOC(=O)Cn1c(SC)nc2sc3c(c2c1=O)CC(C)(C)OC3, which “activity, negative = inhibition” value is on record?
Its value is inactive: 8.03%.

For COCCSc1ccccc1C(=O)NCCc1ccccc1, which Potency is on record?
Its Potency is active: 17.8 µM.

How did the activity, negative = inhibition turn out when COc1ccc2nc(NC(=O)c3cnccn3)sc2c1 was run?
The activity, negative = inhibition was inconclusive: -63.1% [inhibitor].

COc1cccc(NC(=O)CSc2nc3c(c(=O)n2C)SC(C)C3)c1 (stereo not drawn) was tested. Which Potency did it give?
The Potency was inconclusive: 89.1 µM [inhibitor, single point].

Which Potency does the source give for COc1ccccc1-c1coc2c(CN3CCCCC3C)c(O)ccc2c1=O (stereo not drawn) here?
Its Potency is inconclusive: 89.1 µM [inhibitor, single point].

COc1ccc(S(=O)(=O)N2CCc3ccccc32)cc1[N+](=O)[O-] was tested. Which Potency did it give?
The Potency was inconclusive: 89.1 µM [inhibitor, partial curve, poor fit].

For CCC(C)NCCCOc1ccc([N+](=O)[O-])cc1 (stereo not drawn), which Potency is on record?
Its Potency is inconclusive: 8.91 µM [inhibitor, partial curve, poor fit].

For Cc1ccc(Nc2nc3ccccc3c(=O)[nH]2)cc1C, which “activity, negative = inhibition” value is on record?
Its value is inactive: -3.47% [at 102 µM].

O=c1[nH]c(S)c(/C=C2\C=Nc3ccccc32)s1 was tested. Which Potency did it give?
The Potency was active: 14.1 µM.

For NCC(=O)c1cccc2ccc[n+]([O-])c12, which Potency is on record?
Its Potency is inconclusive: 50.1 µM [inhibitor, partial curve].

For CCN(Cc1ccccc1)S(=O)(=O)c1ccc(C(=O)Nc2nnc(C)o2)cc1, which “activity, negative = inhibition” value is on record?
The value was inactive: 58.6% [at 102 µM].

Which Potency does the source give for Cc1cc(=O)oc2cc3c(cc12)OCCO3 here?
The Potency was inconclusive: 10 µM [inhibitor, partial curve, poor fit].

Cc1cc(C)c[n+](-c2nc3ccccc3nc2[N-]S(=O)(=O)c2ccc(Cl)cc2)c1 was tested. Which Potency did it give?
Its Potency is inconclusive: 35.5 µM [inhibitor, single point].

CN1CCN(CCNC(=O)Cn2c(=O)c3cccn3c3ccc(F)cc32)CC1 was tested. Which “activity, negative = inhibition” value did it give?
Its value is inactive: 7.92% [at 102 µM].

For Cc1ccc(-c2cc(C(F)(F)F)n3nc(C(=O)Nc4ccc(C#N)cc4)cc3n2)cc1, which “activity, negative = inhibition” value is on record?
Its value is inactive: 2.84%.

Cc1cc(-c2n[nH]c(=S)n2/N=C/c2ccccc2[N+](=O)[O-])n[nH]1 was tested. Which Potency did it give?
Its Potency is active: 0.398 µM.

How did the Potency turn out when Cc1ccc(NC(=O)Nc2cccs2)cc1 was run?
Its Potency is inconclusive: 35.5 µM [inhibitor, single point].

How did the Potency turn out when COc1ccc(OC)c(-c2c3c([nH]c(=S)c2C#N)CCCC3)c1 was run?
The Potency was inconclusive: 17.8 µM [inhibitor, full curve, poor fit].

O=C(C1CCCO1)N1CCN(S(=O)(=O)c2cc(C(F)(F)F)ccc2Cl)CC1 (stereo not drawn) was tested. Which Potency did it give?
Its Potency is inconclusive: 79.4 µM [inhibitor, partial curve, poor fit].

With C=CCSc1nc2c(c(=O)[nH]c(=O)n2C)n1CC as the molecule, how does the Potency read?
The Potency was inconclusive: 3.55 µM [inhibitor, partial curve, poor fit].

Which Potency does the source give for COc1cc(OC)c(NC(=S)NCc2ccc(F)cc2)cc1Cl here?
Its Potency is inconclusive: 44.7 µM [inhibitor, partial curve, poor fit].

How did the Potency turn out when O=C(O)c1ccc(NCCC2=CCCCC2)c([N+](=O)[O-])c1 was run?
Its Potency is inconclusive: 56.2 µM [inhibitor, partial curve].

Which Potency does the source give for COC(=O)c1ccc(C)c(-n2c(=O)n(Cc3ccccc3)c(=O)c3[nH]cnc32)c1 here?
Its Potency is inconclusive: 79.4 µM [inhibitor, single point].

How did the “activity, negative = inhibition” value turn out when CCCCn1c(=O)c(CCC(=O)OCC(=O)Nc2ccc(C)c(Cl)c2)nc2ccccc21 was run?
The value was inactive: 21.2%.

COc1ccccc1C1=Nn2c(nnc2C2CCCCC2)SC1 was tested. Which activity, negative = inhibition did it give?
The activity, negative = inhibition was inconclusive: -51.4% [inhibitor].

For O=C(/C=C/c1c(F)cccc1Cl)Nc1ccc(S(=O)(=O)Nc2ncccn2)cc1, which Potency is on record?
Its Potency is inconclusive: 100 µM [inhibitor, single point].

With CCN(CCCNC(=O)CCCCn1c(=O)[nH]c2ccccc2c1=O)c1ccccc1 as the molecule, how does the Potency read?
Its Potency is inconclusive: 22.4 µM [inhibitor, single point].

Which Potency does the source give for Cc1ccc(C)c(NC(=O)CCC(=O)NNS(=O)(=O)c2ccc(Cl)cc2)c1 here?
The Potency was inconclusive: 28.2 µM [inhibitor, single point].

How did the Potency turn out when Cc1ccc(CNC(=O)C2CCN(S(=O)(=O)c3ccc4c(c3)oc(=O)n4C)CC2)cc1 was run?
Its Potency is inconclusive: 39.8 µM [inhibitor, partial curve, poor fit].

Which Potency does the source give for COc1ccc(OC)c(S(=O)(=O)Nc2ccc3c(c2)N(C(C)=O)CCC3)c1 here?
Its Potency is inconclusive: 50.1 µM [inhibitor, partial curve, poor fit].

For COc1ccc(Nc2oc(COc3ccccc3OC)nc2C#N)cc1, which Potency is on record?
The Potency was inconclusive: 35.5 µM [inhibitor, single point].

With Cc1nnc(N/N=C\c2ccc(-c3cccc(C(=O)O)c3)o2)n1N as the molecule, how does the Potency read?
Its Potency is active: 39.8 µM.

Which Potency does the source give for Cc1ccc(OCCCc2c(C)n[nH]c2C)cc1 here?
The Potency was inconclusive: 0.316 µM [inhibitor, full curve, poor fit].

How did the Potency turn out when Cc1nnc(NC(=O)Cn2c(=O)sc3ccccc32)s1 was run?
The Potency was inconclusive: 50.1 µM [inhibitor, partial curve].

CN(Cc1ccccc1)C(=O)c1ccccc1NC(=O)c1ccccc1 was tested. Which activity, negative = inhibition did it give?
Its activity, negative = inhibition is inactive: -7.22% [at 2.33 µM].

For O=C(NCCCn1ccnc1)c1ccco1, which activity, negative = inhibition is on record?
Its activity, negative = inhibition is inactive: -24.6% [at 12.7 µM].

CCC(=O)/C=C1\Sc2ccccc2N1CC was tested. Which Potency did it give?
Its Potency is active: 50.1 µM.

Brc1ccc(-c2cn3ccccc3n2)s1 was tested. Which Potency did it give?
Its Potency is inconclusive: 31.6 µM [inhibitor, single point].

Cc1ccc(NC(=O)c2sc3nc(N)c(C#N)cc3c2N)cc1 was tested. Which Potency did it give?
The Potency was active: 7.94 µM.

Which “activity, negative = inhibition” value does the source give for CCCCCn1c(C)c2c(OCC)cccc(=O)c2c1C here?
The value was inactive: -44.4% [at 102 µM].

With CCC(CC)C(=O)Nc1ccccc1C(=O)OCc1cc(=O)n2nc(C3CCCCC3)sc2n1 as the molecule, how does the “activity, negative = inhibition” value read?
The value was inactive: 10.5%.

For COc1ccc(Cl)cc1N(C)C(=O)Cn1cnc2sc(C)c(S(=O)(=O)N3CCN(c4ncccn4)CC3)c2c1=O, which Potency is on record?
The Potency was inconclusive: 5.62 µM [inhibitor, partial curve, poor fit].

Cc1noc(C)c1C(=O)N1CCN(c2ccc(OCc3ccccc3)cc2)CC1 was tested. Which Potency did it give?
Its Potency is inconclusive: 35.5 µM [inhibitor, single point].

How did the “activity, negative = inhibition” value turn out when COc1ccc(CN2CCN(Cc3cc4ccccc4o3)CC2CCO)cc1C (stereo not drawn) was run?
The value was inactive: 9.58% [at 102 µM].

How did the Potency turn out when CCOc1ccccc1-n1c(=O)c2ccccc2c2ccccc2c1=O was run?
Its Potency is active: 3.55 µM.

How did the “activity, negative = inhibition” value turn out when COc1ccc(C(=O)N2CCCCC2CCN2CCCCC2)cc1 (stereo not drawn) was run?
Its value is inactive: 8.69%.

With CS(=O)(=O)c1ccc2nc(NC(=O)c3ccc(NS(=O)(=O)c4cccc([N+](=O)[O-])c4)cc3)sc2c1 as the molecule, how does the activity, negative = inhibition read?
Its activity, negative = inhibition is inconclusive: -74.3% [inhibitor].

Which Potency does the source give for CC(=O)c1ccc(S(=O)(=O)N2CCN(c3nc(-c4cccnc4)nc4ccccc34)CC2)cc1 here?
The Potency was inconclusive: 5.62 µM [inhibitor, single point].

For COc1nc2c(s1)C(=O)NCCC2, which Potency is on record?
Its Potency is inconclusive: 39.8 µM [inhibitor, partial curve, poor fit].

With Cc1ccc2oc(=O)c(/C=C(\O)c3cccs3)nc2c1 as the molecule, how does the Potency read?
Its Potency is inconclusive: 1.12 µM [inhibitor, full curve].

Which Potency does the source give for COc1ccc(C2CC(=O)c3sc(NC(C)=O)nc3C2)cc1 (stereo not drawn) here?
Its Potency is active: 39.8 µM.

With Cc1noc(/C=C/c2ccco2)c1S(=O)(=O)N1CCC(C(=O)N2c3ccccc3CC2C)CC1 (stereo not drawn) as the molecule, how does the Potency read?
The Potency was inconclusive: 25.1 µM [inhibitor, partial curve].

CCN(C(=O)CSc1nnc(-c2ccncc2)n1-c1ccccc1)C1CCS(=O)(=O)C1 (stereo not drawn) was tested. Which Potency did it give?
The Potency was inconclusive: 8.91 µM [inhibitor, partial curve, poor fit].

With CCOC(=O)Cc1csc(NC(=O)c2cc(C)cc(C)c2)n1 as the molecule, how does the Potency read?
Its Potency is inconclusive: 70.8 µM [inhibitor, partial curve, poor fit].

How did the Potency turn out when CCOC(=O)Cc1ccc(NCc2ccc(Cl)cc2)cc1 was run?
The Potency was active: 50.1 µM.

With CC1CC(C)CN(c2ccc(C(=O)OCC(=O)NC3CCCc4ccccc43)cc2[N+](=O)[O-])C1 (stereo not drawn) as the molecule, how does the Potency read?
Its Potency is inconclusive: 39.8 µM [inhibitor, full curve].

Cc1cc(/C=C(\C#N)C(=O)N2CCOCC2)c(C)n1C1CCCC1 was tested. Which activity, negative = inhibition did it give?
Its activity, negative = inhibition is inconclusive: -51.7% [inhibitor] [at 12.7 µM].
